# Data as given in PubChem BioAssay AID1240 (Sanford-Burnham Center for Chemical Genomics, 2008).
# The whole screen tested about 50,000 compounds, of which about 800 (1.6%) showed an effect of 50% or more. Some of the results follow.
# Molecular target: Bcl-2-like protein 10 (Homo sapiens) (UniProt Q9HD36)
# Assay: TR3 peptide-Bcl-B binding displacers, biochemical primary FP assay, phenotype converters (AID 1240);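 further: 0% = Bcl-B with tracer peptide and DMSO and 100% = tracer peptide lacking Bcl-B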
# Conditions: GST-Bcl-B / FITC-TR3 peptide fluorescence polarization; stronger effect = higher value; compound at 3.75 mg/L
# UniProt Q9HD36, sequence (Q9HD36 whole entry, looked up): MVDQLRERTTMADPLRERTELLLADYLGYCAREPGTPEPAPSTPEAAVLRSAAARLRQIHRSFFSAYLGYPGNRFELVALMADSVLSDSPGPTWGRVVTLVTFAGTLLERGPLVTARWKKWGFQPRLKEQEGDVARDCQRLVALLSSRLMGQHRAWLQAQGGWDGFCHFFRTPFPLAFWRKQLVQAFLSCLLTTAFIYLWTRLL
row,SMILES,displacement
1,S=C(NC1CCCCC1)NC(c1ccccc1)(c1ccccc1)c1ccccc1,15.4%
2,CN(C)c1ccc(CNC(=O)C(O)(c2ccccc2)c2ccccc2)cc1,8.7%
3,Cc1ccc(C2NC(=O)NC(O)(C(F)(F)F)C2C(=O)c2ccc(Br)cc2)cc1 (stereo not drawn),11.2%
4,COC(=O)C1=C(C)N(C)C(C)=C(C(=O)OC)C1c1cccc([N+](=O)[O-])c1,-6.6%
5,O=C(CCN1C(=O)S/C(=C/c2ccc(Cl)cc2)C1=O)Nc1ccc(S(=O)(=O)Nc2nccs2)cc1,12.1%
6,COc1ccc(OCC(O)Cn2c(C)nc3ccccc32)cc1 (stereo not drawn),-22.4%
7,CCOC(=O)C(=Cc1ccc(-c2ccc(Cl)cc2Cl)o1)C(=O)OCC,26.4%
8,COc1ccc(-c2noc(COc3cccc(C)c3)n2)cc1OC,4.9%
9,NS(=O)(=O)c1ccc(CNC(=O)c2ccco2)cc1,9.8%
10,CCC(=O)N1c2ccc(C)cc2C(=C2SC(C(=O)OC)=C(C(=O)OC)S2)C(=S)C1(C)C,3.9%
11,O=C(NCc1ccncc1)c1cccc(Cl)c1,-0.7%
12,Clc1ccc(-c2csc(Nc3ncccn3)n2)cc1Cl,11.2%
13,CS(=O)(=O)N(CC(=O)Nc1cc(Cl)cc(Cl)c1)c1ccc(Cl)cc1,-3.2%
14,COc1ccc(CCNC(=O)c2ccccc2N(Cc2ccccc2)S(=O)(=O)c2ccccc2)cc1OC,-7.2%
15,COC(=O)c1ccc(C(=O)OC)c(NC(=O)c2cccc(OC)c2)c1,15%
16,Cc1cccc(N2C(=O)NC(=O)/C(=C\c3ccc(OCc4cccc(C(=O)O)c4)cc3)C2=O)c1,3.3%
17,N#Cc1cc(N=Cc2cccc(C=Nc3ccc(N)c(C#N)c3)c2)ccc1N,15.2%
18,CC(NC(=O)CN1CCCCC1)C1CC2CCC1C2 (stereo not drawn),-8.9%
19,COc1ccc(NC(=O)c2cccc(C(F)(F)F)c2)c2ccccc12,10.3%
20,O=C(CCN1C(=O)c2ccccc2C1=O)NCc1ccncc1,-6.7%
21,CCOC(=O)C(=O)Nc1nc(C23CC4CC(CC(C4)C2)C3)cs1,3.2%
22,Cc1ccc([N+](=O)[O-])cc1Cc1cc(Cl)ccc1Cl,5.1%

row,SMILES,displacement
1,CCCOc1cccc(NC(=O)c2c(-c3ccccc3)noc2C)c1,-5.5%
2,CCOc1ccc(NC(=O)C(=O)Nc2cccc(C(F)(F)F)c2)cc1,12.6%
3,CCCn1c(SCC(=O)O)nc2ccccc21,11.8%
4,COC1(/C(N)=C/C(=O)c2ccccc2)CCCCC1,5.1%
5,O=C(CN1CCOCC1)NCC12CC3CC(CC(C3)C1)C2,4.5%
6,CCOCc1cnc(C)nc1NC(C)=O,3.9%
7,O=C1CCCC2=C1C(c1ccc(O)c(O)c1)Nc1ccc3ncccc3c12 (stereo not drawn),33.3%
8,CN1CCN(CCOCCOc2ccccc2)CC1,-7.9%
9,CCC(=O)Nc1ccc(NC(=O)c2cc3ccccc3o2)cc1,5.1%
10,CCOC(=O)c1sc(NC(=O)C2CC3CCC2C3)c(C(=O)OCC)c1C (stereo not drawn),-6.3%
11,COc1ccc(/C=C/C(=O)Nc2ccc(NC(=O)c3cc4ccccc4o3)c(OC)c2)cc1,10%
12,COc1ccccc1/C=N/n1c(C)nnc1C,2.2%
13,O=C(/C=C/c1ccccc1)N1CCC(CN2C(=O)c3cccc4cccc(c34)C2=O)CC1,9.9%
14,C#Cc1cccc(N2C(=O)c3c(Br)c(Br)c(Br)c(Br)c3C2=O)c1,2.7%
15,COc1ccc(C2CC(=O)C3=C(C2)Nc2ccccc2NC3c2ccc(F)cc2)cc1OC (stereo not drawn),8.5%
16,COc1ccc(OC)c(NC(=O)c2cc3cc(Br)ccc3oc2=O)c1,0.5%
17,CCOC(=O)C1CCN(S(=O)(=O)c2cc(Cl)ccc2Cl)CC1,-3.5%
18,COc1ccc(-c2nnnn2C)cc1S(=O)(=O)Nc1ccc(I)cc1,11.3%
19,O=C(Nc1cccnc1)c1cccc2c1C(=O)c1ccccc1-2,-1.4%
20,O=C(/C=C/c1ccccc1)NC(=S)Nc1ccc(NC(=O)c2ccco2)c(Cl)c1,14.1%
21,Cc1ccc(NC(=O)CSCC(=O)Nc2ccccc2)c(C)c1,-2.1%
22,Cc1ccc(NC(=O)Nc2nccs2)cc1,-11.6%

row,SMILES,displacement
1,S=C(Nc1cccc2ccccc12)N1CCN(C(c2ccccc2)c2ccccc2)CC1,20.4%
2,O=C(CSc1nc2ccccc2s1)c1cccs1,-13%
3,COc1ccc(-c2csc(-c3cc4cc(Cl)cc(Cl)c4oc3=O)n2)cc1,75%
4,O=C(/C=C/c1cccc([N+](=O)[O-])c1)Nc1ccc(-c2nc3ccccc3o2)c(O)c1,2.3%
5,O=C(CC1S/C(=N\N=C2/CCCc3ccccc32)NC1=O)Nc1ccc(Cl)cc1Cl (stereo not drawn),7.3%
6,CC(=O)NS(=O)(=O)c1ccc(NC(=O)c2cccc(C)c2)cc1,8.1%
7,COc1cc(NC(=O)COc2ccccc2[N+](=O)[O-])ccc1NC(=O)c1ccco1,-1.2%
8,CCOC(=O)c1c(-c2ccc(C)cc2)csc1NC(=O)c1cc2ccccc2oc1=O,6.6%
9,O=C1NC(=Nc2ccc(F)cc2)S/C1=C/C=C/c1ccccc1,13.8%
10,COc1ccc2oc(=O)c(C(=O)Nc3cccc([N+](=O)[O-])c3)cc2c1,10.3%
11,NC(=O)CN(Cc1ccccc1)S(=O)(=O)c1ccccc1,3.2%
12,COc1cc(C2Nc3ccccc3NC3=C2C(=O)CC(C)(C)C3)cc(OC)c1OC(C)=O (stereo not drawn),-23.2%
13,COc1ccc(N=c2ssc3c2-c2ccc(OC)cc2NC3(C)C)cc1,-8%
14,Cc1cc(OCC(=O)Nc2ccc(N3CCOCC3)cc2)ccc1Br,-9.7%
15,O=C(/C=C/c1ccc2c(c1)OCO2)n1cnc2ccccc21,13.6%
16,COc1cccc(/C=N/n2c(-c3ccccc3)n[nH]c2=S)c1,-1.6%
17,COc1ccc(OC)c(C2NC(=S)NC(C)=C2C(=O)OCCc2ccccc2)c1 (stereo not drawn),3.9%
18,O=C(Nc1ccc2oc(-c3cccc4ccccc34)nc2c1)c1ccc([N+](=O)[O-])cc1,11.4%
19,COc1cc(C(=O)N2CCN(Cc3cccc4ccccc34)CC2)cc(OC)c1OC,5.8%
20,COc1ccc(C2Nc3ccccc3C(=O)N2Cc2ccccc2)cc1Cn1nnc2ccccc21 (stereo not drawn),-4.3%
21,CNC(=O)OCCc1ccc(-c2ccccc2)o1,10.5%
22,O=C(O)c1cc(Cl)ccc1NC(=O)C(c1ccccc1)c1ccccc1,2.7%

row,SMILES,displacement
1,Cc1ccc(NC(=O)C2C3C=CC(C4CC34)C2C(=O)O)c(C)c1 (stereo not drawn),2.2%
2,COc1ccc(N(CC(=O)Nc2cc(C)ccc2C)S(C)(=O)=O)cc1,6.4%
3,N/C(=N\OC(=O)C(c1ccccc1)c1ccccc1)c1cccnc1,10.3%
4,COC(=O)c1cc(C(=O)Nc2nccs2)cc([N+](=O)[O-])c1,-7.8%
5,O=C1NN(c2ccc(Cl)cc2)C(=O)/C1=C\c1ccc(-c2cccc(C(=O)O)c2)o1,5%
6,O=c1c2ccccc2n(Cc2cccc(C(F)(F)F)c2)c2ccccc12,-1.9%
7,Cc1ccc(OCC(=O)Nc2ccc([N+](=O)[O-])cc2)c(C)c1,8.8%
8,CC(C)c1ccc(N2C(=O)NC(=O)/C(=C/c3ccc(I)o3)C2=O)cc1,-9.8%
9,O=C(COc1ccc(Cl)cc1)Nc1nn[nH]n1,1.9%
10,CCOC(=O)Cc1csc(NC(=O)COc2cc(C)ccc2C(C)C)n1,-1.6%
11,Cn1c(O)c(C(=NCc2ccccc2)c2ccccc2)c(=O)n(C)c1=O,6.7%
12,CCOc1ccc(/C=C2/C(=O)NN(c3ccccc3)C2=O)cc1OC,9.6%
13,O=C(NCCNc1ccc(Cl)cc1[N+](=O)[O-])c1cccc2ccccc12,14.2%
14,CSc1ccc(/C=C2\C(=O)NC(=O)N(c3cc(C)cc(C)c3)C2=O)cc1,-7.2%
15,COc1ccc(C(=O)Nc2ccc(NC(C)=O)cc2)cc1[N+](=O)[O-],2.7%
16,Cc1ccc(NC(=O)CN(c2ccc(F)cc2)S(=O)(=O)c2ccccc2)cc1C,3.9%
17,Cc1cc(Cl)ccc1OCC(O)CN1CCN(Cc2ccccc2)CC1 (stereo not drawn),-0.3%
18,Cc1ccc2nc(N3C(=O)c4cccc5cccc(c45)C3=O)sc2c1,-15.5%
19,O=C(Nc1cccc2ccccc12)c1ccc(S(=O)(=O)N2CCOCC2)cc1,7.8%
20,O=C(NCCSCc1cccc(Cl)c1)c1c(Cl)cccc1Cl,2.1%
21,O=C(COc1ccc(Br)cc1)N1CCN(c2ccccn2)CC1,-8.5%
22,O=C1c2cccc3cccc(c23)C(=O)N1c1ccc2c(c1)oc1ccccc12,-6%

row,SMILES,displacement
1,COc1cc(/C=C2\C(=O)NC(=O)N(c3ccc(C)cc3)C2=O)ccc1OCc1ccc(C(=O)O)cc1,-28.6%
2,CN(C)c1cccc(C(=O)Nc2ccncc2)c1,10.5%
3,CC(=O)Nc1ccccc1NC(=O)COc1ccc(C)cc1Br,-9.6%
4,CCCCCCCCC(=O)N/N=C(\C)c1ccco1,11.8%
5,CC1=C(C(=O)OCCc2ccccc2)C(c2ccc([N+](=O)[O-])s2)NC(=O)N1C (stereo not drawn),4.3%
6,COCCNC(=O)COc1ccc(C)cc1Br,-11.1%
7,O=C(Nc1ccccc1)Nc1cccc(Cl)c1Cl,-8.5%
8,Cc1cc(-c2ccc(Cl)cc2)nc2cc(C(=O)O)nn12,15.3%
9,Cc1ccc(NC(=O)c2ccc3nc4ccccc4nc3c2)cc1,-8.5%
10,OCc1ccc(-c2cc(C(F)(F)F)cc(C(F)(F)F)c2)o1,12.5%
11,COc1ccc(C=NN2CCN(c3ccccn3)CC2)cc1OCc1ccccc1,-1.3%
12,COc1cccc(C2NC(=S)NC(C)=C2C(=O)Nc2ccc(Br)cc2)c1OC (stereo not drawn),11.9%
13,CC1=C(C(=O)Nc2ccc(Cl)cc2)C(c2cccs2)NC(=O)N1 (stereo not drawn),1.4%
14,COc1ccc(N2C(=O)c3ccc(C(=O)Nc4ccc(NC(C)=O)cc4)cc3C2=O)cc1,5.9%
15,CNC(=O)CN(c1ccc(C)cc1)S(=O)(=O)c1ccc(SC)cc1,1.3%
16,CC(=O)c1ccc(NC(=O)c2ccoc2C)cc1,94%
17,NNc1nc(Nc2ccc(Br)cc2)nc(OC(C(F)(F)F)C(F)(F)F)n1,-19%
18,O=C(Nc1ccccc1C(=O)O)c1ccc(N2C(=O)C3C4C=CC(C4)C3C2=O)cc1 (stereo not drawn),-3.6%
19,COc1ccc(NC(=O)CN(c2c(C)n(C)n(-c3ccccc3)c2=O)S(=O)(=O)c2ccccc2)cc1,-0.6%
20,CCOC(=O)c1ccc2nc(C)c(CCC(C)=O)c(Cl)c2c1,0.7%
